Data on two molecules can be found in patent US20240181006A1 (Merck KGaA, published 2024).

Test [1] deals with recombinant human Neurocan (human, UniProt O14594 23-1321, limits assumed). The experiment in a line: ELISA on recombinant human Neurocan. For orientation: An ELISA detects its analyte on a solid surface through an enzyme-linked reagent.
Test [2] deals with T1, recombinant human Brevican (human, UniProt Q96GW7 23-911, limits assumed).
T1 sequence (looked up): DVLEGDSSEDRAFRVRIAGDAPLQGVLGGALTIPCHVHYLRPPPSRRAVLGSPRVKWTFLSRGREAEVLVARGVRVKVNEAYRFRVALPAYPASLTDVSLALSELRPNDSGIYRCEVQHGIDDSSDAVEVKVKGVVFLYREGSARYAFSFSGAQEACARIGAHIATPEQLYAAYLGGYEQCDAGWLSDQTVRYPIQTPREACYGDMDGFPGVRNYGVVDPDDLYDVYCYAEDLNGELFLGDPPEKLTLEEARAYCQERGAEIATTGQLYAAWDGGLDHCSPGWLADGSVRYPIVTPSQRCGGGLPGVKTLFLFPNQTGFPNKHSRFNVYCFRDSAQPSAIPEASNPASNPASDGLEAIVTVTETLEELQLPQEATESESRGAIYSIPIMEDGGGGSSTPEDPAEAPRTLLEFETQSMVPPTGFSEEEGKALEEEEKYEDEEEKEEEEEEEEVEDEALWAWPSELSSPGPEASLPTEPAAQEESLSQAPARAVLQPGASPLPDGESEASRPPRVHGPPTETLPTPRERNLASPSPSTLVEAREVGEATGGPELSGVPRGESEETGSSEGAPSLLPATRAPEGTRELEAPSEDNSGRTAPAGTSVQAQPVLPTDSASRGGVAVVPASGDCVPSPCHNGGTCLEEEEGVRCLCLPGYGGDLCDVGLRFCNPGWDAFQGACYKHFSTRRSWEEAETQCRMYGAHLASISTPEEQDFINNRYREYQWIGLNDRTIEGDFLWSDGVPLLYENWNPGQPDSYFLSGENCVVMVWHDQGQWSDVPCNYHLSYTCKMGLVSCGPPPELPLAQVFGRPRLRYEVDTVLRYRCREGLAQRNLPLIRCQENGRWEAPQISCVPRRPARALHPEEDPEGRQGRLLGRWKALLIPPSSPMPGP
The test is described as follows: ELISA on recombinant human Brevican.

Test [3] addresses T2, recombinant human Aggrecan G1-IGD-G2 (human, UniProt P16112 fragment).
T2 construct: also called Hu G1-IGD-G2
The experiment in a line: ELISA on recombinant Aggrecan G1-IGD-G2.

Test [4] has as its target T3, recombinant bovine Aggrecan G1-IGD-G2 (bovine, UniProt P13608 20-684, limits assumed).
T3 construct: domain: G1-IGD-G2; also called Bov G1-IGD-G2
The test is described as follows: ELISA on recombinant Aggrecan G1-IGD-G2.

Test [5] addresses T4, recombinant dog Aggrecan G1-IGD-G2 (dog, UniProt Q28343 20-693, limits assumed).
T4 construct: domain: G1-IGD-G2; also called Dog G1-IGD-G2
The test is described as follows: ELISA on recombinant Aggrecan G1-IGD-G2.

The target of test [6] is T5, recombinant cynomolgus Aggrecan G1-IGD-G2 (cynomolgus).
T5 construct: domain: G1-IGD-G2; also called Cy G1-IGD-G2
The test is described as follows: ELISA on recombinant Aggrecan G1-IGD-G2.

Test [7] addresses T6, recombinant rat Aggrecan G1-IGD-G2 (rat, UniProt P07897 20-684, limits assumed).
T6 construct: domain: G1-IGD-G2; also called Rat G1-IGD-G2
The test is described as follows: ELISA on recombinant Aggrecan G1-IGD-G2.

B1: construct 118, ALB26-114F08-114F08 (other)
chain: [… about 120 residues …]GGGGSGGGGSGGGGSGGGGSGGGGSGGGGSGGGGSEVQLVESGGGLVQAGGSLRLSCAASGSTFIINVVRWYRRTPGKQRELVATISSGGNANYVDSVRGRFSISRDGAKNAVDLQMNGLKPEDTAVYYCNVPTTHYGGVYYGPYWGQGTLVTVSSGGGGSGGGGSGGGGSGGGGSGGGGSGGGGSGGGGSEVQLVESGGGLVQAGGSLRLSCAASGSTFIINVVRWYRRTPGKQRELVATISSGGNANYVDSVRGRFSISRDGAKNAVDLQMNGLKPEDTAVYYCNVPTTHYGGVYYGPYWGQGTLVTVSS
notes: also called Alb-114F08-114F08
As a reminder, the EC50 is the concentration needed to bring the measured effect to its halfway point. For the molecule B1, the binding result in test [1] and in test [2] was “no binding” in each case. In addition, the EC50 was 0.11 nM in test [3]; 0.37 nM in test [4]; 0.24 nM in test [5]; 0.076 nM in test [6]; 0.19 nM in test [7].

B2: construct 54, 114F08-ALB26 (other)
chain: EVQLVESGGGLVQAGGSLRLSCAASGSTFIINVVRWYRRTPGKQRELVATISSGGNANYVDSVRGRFSISRDGAKNAVDLQMNGLKPEDTAVYYCNVPTTHYGGVYYGPYWGQGTLVTVSSGGGGSGGGGSGGGGSGGGGSGGGGSGGGGSGGGGS[… about 120 residues …]
notes: also called 054
In the case of B2, the binding result in test [1] and in test [2] was “no binding” throughout. Besides, the EC50 in test [3] came out at 6 nM; in test [4], 5.6 nM; in test [5] it was 3 nM; in test [6], 4.4 nM; in test [7], 7.6 nM.
